Test results reported in patent US20250115636A1, “PEPTIDOMIMETIC INHIBITORS OF PROTEIN N-TERMINAL […] 1, COMPOSITION, AND METHOD OF USE” (Purdue Research Foundation, priority 2022, published 2025).
For some assays here: For at least one compound, name, drawing or mass did not settle the structure. Some results were stated once for a whole list of compounds, not compound by compound.

Legend:
[1] = system: HCT116 cells; experiment: Cytotoxicity / cell viability, alamarBlue (resazurin) assay; type: cell-based, human; conditions: normal HCT116 cells
Procedure: Thus, it was hypothesized that the growth inhibition effects of these five peptidomimetic inhibitors may be caused by off-target effects. To test this hypothesis, compound 1a was selected to evaluate its effects on both wild-type and NTMT1 knockout HCT116 cells (FIG. 3B).
Cell viability assay. HCT116 cells were seeded as 5,000 cells/well on 96-well plates in the presence of 1×PBS or DC541 at different concentrations for 24, 48, or 72 hours. Cell viability was assessed using 0.2 mg/ml resazurin solutions prepared from resazurin sodium salt (Acros Organics™, AC418900050) dissolved in sterile 1×PBS. Then, the cells were incubated with 10 μl resazurin solution (10% of cell culture volume) for four hours at 37° C. The fluorescence was measured using a CLARIOstar microplate reader (Ex=540 nm, Em=620 nm) at 37° C. Cell viability was calculated as 100%×(fluorescence of treated cells-fluorescence of background controls)/(fluorescence of 1×PBS controls-fluorescence of background controls).

[2] = system: NTMT1 knockout (KO) HCT116 cells; experiment: Cytotoxicity, alamarBlue assay in NTMT1 knockout cells; type: cell-based, human; conditions: regardless of the presence of NTMT1
[3] = molecular target: T1, NTMT1 (Homo sapiens, UniProt Q9BV86); experiment: NTMT1 biochemical assay (SAHH-coupled fluorescence assay); conditions: ratio of NTMT1 IC50 to that of DC541
T1 construct: made in house
T1 sequence (Q9BV86 1-223): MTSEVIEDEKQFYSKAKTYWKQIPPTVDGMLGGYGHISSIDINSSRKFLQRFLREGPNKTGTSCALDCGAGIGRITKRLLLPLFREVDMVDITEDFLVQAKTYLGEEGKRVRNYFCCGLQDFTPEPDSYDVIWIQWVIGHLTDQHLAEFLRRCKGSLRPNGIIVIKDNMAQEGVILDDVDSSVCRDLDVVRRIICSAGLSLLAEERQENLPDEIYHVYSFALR

| Compound | GI50 [1] | GI50 on wild-type versus NTMT1 knockout HCT116 cells [2] | IC50/IC50 (DC541) [3] | IC50/IC50 (DC541) ([3]; listed as 1j (GD590)) |
| --- | --- | --- | --- | --- |
| NCCCC[C@H](NC(=O)[C@@H]1CCCN1C(=O)Cc1cccc2ccccc12)C(=O)Nc1cccc(Br)c1 [Compound 1a] | < 70 µM | comparable GI50 value | 0.50 |  |
| NCCCC[C@H](NC(=O)[C@@H]1CCCN1C(=O)Cc1cccc2ccccc12)C(=O)Nc1ccc(Br)cc1 [Compound 1b] | < 70 µM |  | 0.53 |  |
| NCCCC[C@H](NC(=O)[C@@H]1CCCN1C(=O)Cc1cccc2ccccc12)C(=O)NCc1ccccc1 [Compound 1c] |  |  | 2.7 |  |
| NCCCC[C@H](NC(=O)[C@@H]1CCCN1C(=O)Cc1cccc2ccccc12)C(=O)NCCCc1ccccc1 [Compound 1e] |  |  | 1.9 |  |
| NCCCC[C@H](NC(=O)[C@@H]1CCCN1C(=O)Cc1cccc2ccccc12)C(=O)NCC1CCCCC1 [Compound 1f] |  |  | 2.8 |  |
| NCCCC[C@H](NC(=O)[C@@H]1CCCN1C(=O)Cc1cccc2ccccc12)C(=O)NCc1cccc(Br)c1 [Compound 1g] |  |  | 1.7 |  |
| NCCCC[C@H](NC(=O)[C@@H]1CCCN1C(=O)Cc1cccc2ccccc12)C(=O)NCc1ccc(Br)cc1 [Compound 1h] |  |  | 2.4 |  |
| NCCCC[C@H](NC(=O)[C@@H]1CCCN1C(=O)Cc1cccc2ccccc12)C(=O)NCCc1ccc(-c2ccccc2)cc1 [Compound 1j] |  |  | 8 | 7.4 |
| NCCCC[C@H](NC(=O)[C@@H]1CCCN1C(=O)Cc1cccc2ccccc12)C(=O)NCCc1cccc(-c2ccccc2)c1 [Compound 1k] | < 70 µM |  | 2.0 |  |
